Results on three compounds are retold here after the supplement of paper PMC4604168 (melanoma cell lines).

Test systems include 501Mel; A101D; A2058; A375.
Experiment in all cases: cell count relative to DMSO control; melanoma cells; higher = more viable cells
What all share (details): library dose: standard library concentration; 72 h

Each structure is given as a SMILES string. The list shows a part of the results. Most values come without repeats; read them as rough.
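Note: cells treated in 1,536-well plates, then fixed and DAPI-stained, with nuclei counted from automated high-throughput microscope images.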

On to `C=CCn1c(=O)c2cnc(Nc3ccc(N4CCN(C)CC4)cc3)nc2n1-c1cccc(C(C)(C)O)n1` + COc1cc(N2CCC(N3CCN(C)CC3)CC2)ccc1Nc1ncc(Cl)c(Nc2ccccc2S(=O)(=O)C(C)C)n1 [NVP-TAE684] (first compound 0.1 µM, partner dose 0.4 µM), for which the cell count was determined as 59.7% with 501Mel, 70.9% with A101D, 66.8% with A2058 and 44.1% in the test with A375.

On to `NCC(=O)Nc1ccc(-n2nc(C(F)(F)F)cc2-c2ccc3c(ccc4ccccc43)c2)cc1` + c1cc(-c2cnn3cc(-c4ccc(OCCN5CCCCC5)cc4)cnc23)ccn1 [Dorsomorphin] (first compound 5 µM, partner dose 2 µM), for which the cell count was 3.48% in the test on 501Mel, 64.8% in the test on A101D, 84.8% in the test on A2058 and 43.7% in the test on A375.

As to `C[C@]1(c2nc3c(C(N)=O)cccc3[nH]2)CCCN1` [Veliparib] + COc1cc2ncnc(Nc3ccc(Oc4ccccc4)cc3)c2cc1OC [SrcI1] (first compound 7 µM, partner dose 10 µM), the cell count stood at 84.7% with 501Mel, 65.8% with A101D, 96.3% with A2058 and 144% with A375.
